# Some of the results follow. At the low end of the ranking the order means little. The protein was read in a cell extract, so binding may be indirect.
# Target: T1, HNF4alpha8 (COS-7 nuclear extract) (UniProt P41235-5)
# T1 sequence: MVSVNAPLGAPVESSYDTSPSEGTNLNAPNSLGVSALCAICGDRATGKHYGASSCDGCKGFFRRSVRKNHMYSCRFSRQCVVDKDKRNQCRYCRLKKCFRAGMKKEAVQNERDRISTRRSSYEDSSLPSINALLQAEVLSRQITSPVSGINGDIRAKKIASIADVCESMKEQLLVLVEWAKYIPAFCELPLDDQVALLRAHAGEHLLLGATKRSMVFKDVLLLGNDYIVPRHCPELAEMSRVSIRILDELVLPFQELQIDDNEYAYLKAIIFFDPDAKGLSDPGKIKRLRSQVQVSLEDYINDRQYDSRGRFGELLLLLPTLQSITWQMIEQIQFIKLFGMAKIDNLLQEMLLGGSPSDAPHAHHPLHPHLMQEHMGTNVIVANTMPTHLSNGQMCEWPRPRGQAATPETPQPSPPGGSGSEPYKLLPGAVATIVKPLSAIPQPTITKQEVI
# Test: protein-binding microarray
# Conditions: COS-7 nuclear extract on double-stranded Agilent 4x180k PBM; binding buffer, salt, pH and temperature not given; high values mean tight binding; double strand, one strand shown; sequences stand for … in …GCCTAGGGAGATTAGAGTATCGGTCGA
row,Sequence,binding signal (log2 normalized intensity)
1,TTACCCCTTGAGTTTGAACTTTGACTTATT,7.24
2,TTAAAAGTTTCCCTTGATCAAAAACTGCCT,-0.872
3,GGGGCGCAGAAGGGATGGGAACCGACCTTT,6.53
4,TGTCCCCCATCTCATCCTGGGTGCCTTACA,1.48
5,CTGCTTCCCTAGGGAGGTGATTGGTGAGTC,-0.738
6,AGGCCAGCAGTGCTTTTCCCAGGAATAAAA,-1.33
7,AGAACTTTGACCGTTTGATTATTTGTGAAG,2.59
8,CGGCGCCCGCCCACTGGAGACTTCAAACGG,1
9,TTATTCCGTACAAGGATTCATTTCCACCCT,1.41
10,ACATTCCACGTTTGGGGAAGGATAAAATGA,-1.01
11,AATGTCTTTCCTGCAGAGGGACTGACTCCC,-0.782
12,GCAAACAAGGGCAACTCTAATAGCACAGAT,-1.28
13,TTGAACCTTTCTTTGTCTTTGCAATGTTGT,2.99
14,TCTGTGCTCATTATTATCAGCAAGAAAATC,-1.32
15,AGCTGCAGTCATGGAGGCATCATAAACTCC,-1.33
16,TTTGTCTCTGGAGGGATCAGGTCTTTCCTG,1.51
17,CCGTCCACCTTTGGATCCAGCTCCTGATGT,1.54
18,CCCAGTGAGCAATTCTTGTCCCTTTCAAGG,0.507
19,GGTCAAGAGTTTTAAAGTATCCCATCCATT,1.7
20,GTGGACACAAAAAGGCTGTCACACTTGCCC,0.365
21,TATGAGCGGCGCTGACCCCGGGAGCAGCAT,2.57
22,GTAGTTACAGCTCATTAATCATCCGTCACC,-1.3
23,ATAAAAGGCTGTTCTGATGCCATTCCCTGC,-1.12
24,AACATTCTTCTCAGTGTTTTGGGTCCTACA,1.14
25,TACAGTGCACTTTGACCGCTCATTTGATCC,5.69

row,Sequence,binding signal (log2 normalized intensity)
1,CGTATGAATGTGGGAAGCTGGCACAGCAGA,-1.13
2,AACCTATTAATATATTCATAACACTTGTAT,1.22
3,TGTGACCTTTGACTCATTATCCCCCGCAAC,5.74
4,CAATTTCCCCCATGAAATTGAGATAAACAT,2.45
5,GCCACATCCCCCACACCGAGATAGTAGAGA,3.27
6,CTCTTAGTATTACCATGTCCTGTGATTAAG,1.16
7,AGTGTATTGTTCCCTTGCTCCACCCTTCTA,1.72
8,ACTGCATTCCCTAGATGTCGCAGTAGATAA,-1.09
9,AAGGTCACCTCTTCAGATAGCCTTTGCCTC,1.81
10,CTAAGGGCATCTACTTTTAAAACGCTCAAA,-1.28
11,AACTTCTTCCAATGAAAGGTTAACCTGCTG,1.57
12,GGAAAAAGGGACAAAACTTCAAAGCCCCTG,1.22
13,CCCATGGCAGAGGCTGTACTCCTCACTGTT,-0.921
14,CTGGGCCCAAGTGCTCCTCCCCATCTCAGC,2.96
15,GATCCAGTGTGCAAATGTGTCTTTTTTAGT,1.59
16,GGGATGAGGACTTTGATCAGCAATGGAGAG,3.75
17,ACAGAAGCTGCTCTAAGAATGCAGAAACAA,-1.29
18,AAGGTAGGTAAGGGGGAATGCCAACAGGTC,-1.2
19,AAAATTCCTTATGGTTAAGGTGAAAGTCCG,4.44
20,CTTGTTAGTAGGGTCAAAGTCTGGATCCGT,5.68
21,TCTTGTCCTTCCCCTTTTGTGTTTGTCCCT,3.03
22,TATCTATTGGGTACAATGTTCACTATTTGA,3.4
23,TGCTTTAGGCCACCTGTGTCAACATGGACT,2.98
24,GCTAGAGAGTTCAAGAAGGGCAGTTGACAG,-0.925
25,TTGGAAAGGCAGAGGAAAGCCCTAGCTGAC,-1.32

row,Sequence,binding signal (log2 normalized intensity)
1,CAAAAAGGCAAAGGTGTCAGGACCTTTCTT,-0.244
2,CTTTCTATCAGCTCTCCGTGGACTTTGCCC,9.95
3,TTTCCCCCTCACTGAATATGTTCGGGAGAC,2.89
4,ACCCGGTGTGCGTGGGTGGGAAATCATTCC,-0.666
5,GAATGTCGTGCCCTAATCTCACTCTTTGTT,1.01
6,GAGCAAATACAGCACTCAAATGATCAAAGA,-1.36
7,AAACCCAAGATTTGGTGTTACCTTTGGACT,6.32
8,GCAGATGCTGGGCAAAGGGCAAGGCGTCTC,3.09
9,CTCTGTCATGTTCAATATACAGTTGGTATT,1.76
10,AATTCTAGTCCTATCACTGTCTAGCTGTGT,1.16
11,CCATTTGCGCTGGTTTTATGGTGTCTTATC,1.85
12,CTGTCATGGTGCTGGCGGGAGCATAGCAGC,0.259
13,CCAGACCAAGAGCTTAACCTTTGCCATGTG,3.95
14,TTTGGGCGGGGAAAAGGGAGTAAAGGTCAC,6.15
15,CCAGATGATCTTTACCCTGGAATGCTGTTA,1.74
16,AGGACCTTGGGTTCATTTTACAATGCAAAC,0.623
17,TTTCACGATAAAATACACAGGTAAACATTT,-1.23
18,TTCAAATTCTTTGCCATGACCTTTGAAGCC,7.52
19,GGGATTGGGGATGCTCAAAGTACACTTGGA,1.73
20,TGTTGAATACTTGGAGACAGTGAGACGCAA,-1.32
21,GAGGATTAGTGGGAGATAAGGTGGAAAGAC,-1.28
22,TTTCAAACACCTGGGTCTGACCTCTTTCAA,3.43
23,CAAGAATGCGTCATCCGCATCTGAAGATAA,-1.39
24,AAGGTTGACACCTAGCTGAGCAGGGGACTA,-1.4
25,CTTCTCTGCCTCAGAACTTCACTCAGTGGG,1.23

row,Sequence,binding signal (log2 normalized intensity)
1,GATAAGAGCAAGAAACAGCAAATGCTTTTA,-1.3
2,TCTGACTGGCCCAGCCTGGCCTCTAGAGTG,-1.44
3,CACCTTTGGATCCAGCTCCTGATGTTTGGT,2.43
4,CTTTGGTATGGACTGATATTCAAACAGGTC,1.39
5,TCTGCCCCTTATCTTCTGGCCACCTCTTCC,1.7
6,ATCCTGGCTCTCCCACTTATCAGCCATGTG,-1.19
7,AGGTAACATACCAAAAAGCATAACTGTATA,-1.25
8,GCGGCTTCAGAGGCCAGCAGTGCTTTTCCC,-1.2
9,CTGGGATGAGATACCCATTCACATGACCTT,3.92
10,AGTAACACAGTAAGAGACTTCACCATCTGC,-1.3
11,GCAGACTTAGACCCTGACCTGGCATATCTC,2.95
12,TCCTCAGGGAATTTCTAGGTTTGATCTTTG,3.49
13,GGAGTGTGGGGTGGTGTCAGGAGTACAGGT,1.12
14,GGAGAGCTAGTAAGGAGCTGAGTCATAGTG,-1.25
15,ACACCATTAGAGAACATGTACTTTGTACTG,6.41
16,TGCAGCTGCTGCCCAAAGGTCACCTCTTCA,4.68
17,ATATAACCCTTGAACCTTCTTCTTGCAGTC,3.34
18,AAGGGTCAAGGGTCATTTGTTTTTACAGAC,6.77
19,GGTGTAGGTGCTGCACCTTGAAACCCCTCC,3.68
20,AGAATGCGAACCATTTCCCATGGGACTGGC,-1.14
21,CCCAGGGGCTCCCACCAGGGGGAGGCTCAG,-1.24
22,GCCATTGTCCTTTGGGCTCATCCATTTTCC,1.63
23,AGGGCATATTGACTGCCCCAACGCCTCCTT,1.53
24,GCAAGCTTGACCTTTGATCCAGGCTCAGTG,8.22
25,TATACAGTTGTGGGTATGTCTGTAGGTAAG,1.37

row,Sequence,binding signal (log2 normalized intensity)
1,GCACGCTTAGGGAACAAAGGTCAGTCCCGC,6.37
2,TATGACCAGTGTGTTGTGCTGACCTCCTGT,3.34
3,TTGACTGCAGAAGATAAGAATCTCTTTGTA,-1.29
4,GCAGGGCTGCCTCGCTTCCGGGTGGGAGCT,-1.36
5,AAGGCAGGAGATTCCACATTCCCTTCTTAG,-1.27
6,AGTTAGGCAGGATGGGGTCATGATAAGAGC,0.656
7,GCAGAATGAGCAAGGTGGGTTCAGAGACCC,0.0383
8,TCTTCCTAGGCAATCCCATGACCTTTGTAC,9.08
9,TAAAATGCCCTCACAGGTTCCAGCATGGAC,1.57
10,TCAACCTCTCTGGGGGATGGGTCCACACAG,2.31
11,GGGAGATAGTCTGAGAGTCACTGCCTTATC,-1.06
12,GGGGCAGGCAGGGGATGAGATCTGAAGATA,-1.18
13,CCAGTTCCAAAGTCCAGGTGCTTTCTTCTT,5.37
14,ACACTGCAGGCTCTGTCCCCGCCCAGCAGA,3.09
15,AAGAAGTATGAAAGATGACTACCAGGTTCT,-1.27
16,GCTCCGCTTACTCGGCCTGGACCCCTCCGG,2.31
17,AGGTTCTCATACCTTCTGCTTCAGTTTTGC,0.549
18,GGCAGAAGGTTCCAGGGAACTGTCCACCAA,-1.28
19,TAAATTCCAGAAAGCAACAAAAACCAAATC,-1.25
20,CAACCCTTGTCACTTTCCCTTTGTCTCCAG,0.921
21,TTGGGCTGCACCCTGACTAAATTCTTGTCA,-0.233
22,CTGCCATAAGCGAAGATAACCTACTTAAAA,-1.14
23,TGTAAGAAGTGTAAAAAGATAAGATGTACC,1.08
24,ATAACCATGCTCAACATCAAAGGCCTTCCT,-1.28
25,GCTCTTCAATGCATTCCTGAAGCCTTCCTT,-1.2

row,Sequence,binding signal (log2 normalized intensity)
1,TTCAAGGAGCTCGGCGCCAGGAAGCAATGG,-1.34
2,GAACAAGGCTGAAGGGAAGCTCTGGGAGTG,-1.44
3,TGGGCAGAGACTATGTGGTTTTGTAAATAT,1.31
4,AGCCTAGACTCAACACCCAGGCTTATCTCA,-1.36
5,TCTATGTCCACAGAAAGGCAAGAAGTATGA,-1.19
6,CTAGCACCTGTGGATGCAGGTCTACCTTAT,0.621
7,GCAGGCATACCAGGCAGAGGGTTAACCCCT,3.77
8,TGTCCCTCCTCAACCTCTCCAATGCTATGC,1.46
9,ATAAAGTCCAAACCCCTATGTTTAATGTAT,2.21
10,GAAAACAAACATTAGCTGCAGATTCCACCT,-1.29
11,GAGCAGTGAATGTTGAAGTCCCACGGCAAC,-1.24
12,CATTCCTTTCTAATCTCAAAGTGTCAGTCC,1.58
13,AAGAAGCGTCAGTTGCCTCGCCAGAGATAA,-1.31
14,ATTTCTTTTAATGTGTGCTTTCAGGTGTGA,1.86
15,CAGTGGTAATGGAGCTGAAACTATAAACTT,-1.14
16,CTCTCTTCTTGTAATCCCATTTCCCTTGTT,1.83
17,TCAGTTGGTCCAAGGTACATGTCTCTGCTC,2.09
18,TACTCTTATCAGCAGTGACTTGAGAGGCCA,-0.177
19,CTCCAACATGACCACCTGGTTTAAGTCACT,-0.978
20,TTGCACCCAGGCCGTTGGACCAAGCTCTAG,0.23

# — PMC10726135
